The supplement of paper PMC10441789
Some of the results follow. Antibody binding of pooled human sera (four to six donors per pool; dilution not stated) to peptides of the Trypanosoma cruzi antigen TSSA on microarrays. Quantile-normalised fluorescence in arbitrary units, mean of duplicate arrays; higher = more binding. No active / inactive call. The uninfected pools are read here as the healthy donors of the same country. The strongest signals lie near the top of the scale (about 60,000).

Columns and labels:
Assay in all cases: antibody binding signal (normalised fluorescence) (arbitrary fluorescence units); higher = stronger serum antibody binding to peptide
[1] = tested on: pooled sera of chronic Chagas disease patients, Argentina
Description: (§1)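 Microarray of 15-residue peptides over residues 30-55 of Trypanosoma cruzi TSSAII, each with 1 to 10 substitutions at naturally variable positions, probed with one serum pool per country.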

[2] = tested on: pooled sera of chronic Chagas disease patients, Bolivia
Description: as §1

[3] = tested on: pooled sera of chronic Chagas disease patients, Brazil
Description: as §1

[4] = tested on: pooled sera of chronic Chagas disease patients, Colombia
Description: as §1

[5] = tested on: pooled sera of chronic Chagas disease patients, Mexico
Description: as §1

[6] = tested on: pooled sera of chronic Chagas disease patients, USA
Description: as §1

[7] = tested on: pooled sera of uninfected people, Argentina
Description: as §1

[8] = tested on: pooled sera of uninfected people, Bolivia
Description: as §1

[9] = tested on: pooled sera of uninfected people, Brazil
Description: as §1

[10] = tested on: pooled sera of uninfected people, Mexico
Description: as §1

[11] = tested on: pooled sera of uninfected people, USA
Description: as §1

| Sequence | antibody binding signal [1] | antibody binding signal [2] | antibody binding signal [3] | antibody binding signal [4] | antibody binding signal [5] | antibody binding signal [6] | antibody binding signal [7] | antibody binding signal [8] | antibody binding signal [9] | antibody binding signal [10] | antibody binding signal [11] |
| --- | --- | --- | --- | --- | --- | --- | --- | --- | --- | --- | --- |
| GTDNKTATGGTPSQP | 395 | 1450 | 27400 | 2430 | 419 | 372 | 466 | 547 | 1760 | 2250 | 147 |
| GTENKTAAGGTPSQS | 29500 | 549 | 415 | 5500 | 954 | 1880 | 428 | 467 | 1340 | 2980 | 173 |
| SSTPPSGKEKKTAAG | 13300 | 200 | 301 | 957 | 6780 | 723 | 284 | 221 | 109 | 96.6 | 177 |
| DNKAATGGAPSQSGA | 572 | 396 | 2190 | 582 | 529 | 1900 | 353 | 178 | 264 | 276 | 143 |
| EKKPAAGEAPSPSGA | 1210 | 325 | 11200 | 583 | 259 | 13900 | 214 | 913 | 200 | 250 | 793 |
| GTEKKAATGETPSQS | 5410 | 2320 | 14900 | 2150 | 3090 | 11200 | 550 | 831 | 217 | 239 | 191 |
| KEKKAATGGAPSPPG | 417 | 231 | 191 | 485 | 387 | 685 | 213 | 140 | 116 | 69.8 | 122 |
| TSSTPPSGKEKKAAA | 15900 | 324 | 511 | 747 | 26600 | 568 | 652 | 407 | 141 | 96.8 | 253 |
| TPPSGKEKKTAAGGT | 3850 | 250 | 393 | 2690 | 11100 | 1890 | 230 | 201 | 641 | 92.9 | 112 |
| GTDKKTAAGEAPSQP | 3470 | 12700 | 34900 | 1300 | 561 | 7520 | 236 | 330 | 155 | 168 | 106 |
| EKKPAAGGAPSPPGA | 650 | 251 | 574 | 5240 | 436 | 1220 | 292 | 752 | 357 | 145 | 862 |
| KEKKAATGGTPSPSG | 454 | 256 | 130 | 428 | 300 | 591 | 140 | 78.7 | 202 | 79.6 | 105 |
| TEKKTAAGGTPSQPG | 1300 | 227 | 401 | 17000 | 805 | 2880 | 500 | 120 | 976 | 1410 | 278 |
| PPSGTDNKAATGGAP | 28200 | 37100 | 45600 | 1060 | 1640 | 5420 | 1310 | 1060 | 1630 | 333 | 645 |
| GTDKKTAAGGTPSQS | 425 | 238 | 173 | 9040 | 426 | 1880 | 211 | 164 | 685 | 320 | 118 |
| KEKKPATGEAPSPSG | 40800 | 11100 | 41300 | 183 | 191 | 29300 | 795 | 228 | 161 | 101 | 334 |
| GTDNKPATGGTPSQS | 1710 | 805 | 42900 | 1660 | 685 | 548 | 300 | 1080 | 753 | 651 | 161 |
| SGKDKKPAAGETPSQ | 799 | 649 | 2420 | 1780 | 977 | 1500 | 123 | 126 | 112 | 80.2 | 94.2 |

| Sequence | antibody binding signal [1] | antibody binding signal [2] | antibody binding signal [3] | antibody binding signal [4] | antibody binding signal [5] | antibody binding signal [6] | antibody binding signal [7] | antibody binding signal [8] | antibody binding signal [9] | antibody binding signal [10] | antibody binding signal [11] |
| --- | --- | --- | --- | --- | --- | --- | --- | --- | --- | --- | --- |
| EKKTAAGGTPSQPGA | 441 | 479 | 424 | 9710 | 430 | 1770 | 292 | 642 | 822 | 512 | 752 |
| DNKTAAGGAPSPPGA | 401 | 466 | 458 | 5160 | 584 | 765 | 257 | 396 | 564 | 573 | 205 |
| GTDKKPATGGTPSPP | 596 | 350 | 1820 | 5920 | 989 | 634 | 254 | 567 | 966 | 855 | 144 |
| KDNKAATGGAPSPPG | 301 | 264 | 513 | 280 | 247 | 1220 | 324 | 1050 | 160 | 91.5 | 92.5 |
| GTEKKAAAGGAPSQP | 747 | 318 | 1210 | 4920 | 809 | 498 | 178 | 335 | 242 | 129 | 121 |
| KDKKAATGEAPSPPG | 11800 | 15200 | 19200 | 160 | 228 | 17200 | 251 | 84.8 | 128 | 75.1 | 116 |
| TDNKAAAGGTPSPSG | 312 | 233 | 250 | 3120 | 248 | 1200 | 94.9 | 312 | 1320 | 147 | 108 |
| SGKENKPATGEAPSP | 49100 | 49800 | 49700 | 1620 | 2810 | 33300 | 8690 | 4930 | 385 | 721 | 217 |
| SGKDNKAAAGGAPSP | 459 | 240 | 990 | 2170 | 1090 | 1380 | 179 | 206 | 117 | 79 | 129 |
| KDKKTAAGETPSQSG | 187 | 246 | 243 | 214 | 183 | 476 | 107 | 103 | 96 | 80.7 | 124 |
| SGTENKTATGGAPSP | 31700 | 15600 | 20400 | 732 | 738 | 5670 | 573 | 377 | 208 | 419 | 242 |
| KTATGGAPSQSGASS | 495 | 225 | 620 | 266 | 785 | 207 | 484 | 186 | 141 | 348 | 249 |
| PPSGTDNKAATGEAP | 38200 | 37100 | 45300 | 1030 | 1140 | 25700 | 553 | 587 | 763 | 182 | 260 |
| TPPSGTENKAATGGT | 42600 | 41000 | 45200 | 186 | 1370 | 15100 | 2240 | 555 | 1250 | 242 | 359 |
| SGTDNKAATGEAPSP | 24400 | 39600 | 43700 | 247 | 239 | 28000 | 109 | 548 | 857 | 141 | 189 |
| ISTPPSGTDNKTAAG | 47800 | 43200 | 47100 | 2130 | 29700 | 21700 | 1220 | 672 | 2000 | 297 | 283 |
| SGTDNKPAAGEAPSQ | 6840 | 17400 | 41100 | 2500 | 230 | 15900 | 114 | 608 | 280 | 296 | 161 |
| PPSGKDNKAATGGTP | 429 | 281 | 1280 | 561 | 2730 | 2170 | 291 | 349 | 212 | 89.9 | 149 |
